# Results as given in article PMC4336329 (PLoS ONE, 2015).
# Screen size: about 310,000 compounds; about 14,000 (4.5%) showed an effect of 50% or more. Effects have a minus sign here. This is one part of the list.
# Target: human ether-à-go-go-related gene (hERG) potassium channel (human, UniProt Q12809)
# Assay: primary screen, population patch clamp on CHO cells stably expressing hERG
# 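Further: peak tail current of the secondary pulse compared with the same well before compound.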
# Chain of human ether-à-go-go-related gene (hERG) potassium channel (Q12809 whole entry, looked up): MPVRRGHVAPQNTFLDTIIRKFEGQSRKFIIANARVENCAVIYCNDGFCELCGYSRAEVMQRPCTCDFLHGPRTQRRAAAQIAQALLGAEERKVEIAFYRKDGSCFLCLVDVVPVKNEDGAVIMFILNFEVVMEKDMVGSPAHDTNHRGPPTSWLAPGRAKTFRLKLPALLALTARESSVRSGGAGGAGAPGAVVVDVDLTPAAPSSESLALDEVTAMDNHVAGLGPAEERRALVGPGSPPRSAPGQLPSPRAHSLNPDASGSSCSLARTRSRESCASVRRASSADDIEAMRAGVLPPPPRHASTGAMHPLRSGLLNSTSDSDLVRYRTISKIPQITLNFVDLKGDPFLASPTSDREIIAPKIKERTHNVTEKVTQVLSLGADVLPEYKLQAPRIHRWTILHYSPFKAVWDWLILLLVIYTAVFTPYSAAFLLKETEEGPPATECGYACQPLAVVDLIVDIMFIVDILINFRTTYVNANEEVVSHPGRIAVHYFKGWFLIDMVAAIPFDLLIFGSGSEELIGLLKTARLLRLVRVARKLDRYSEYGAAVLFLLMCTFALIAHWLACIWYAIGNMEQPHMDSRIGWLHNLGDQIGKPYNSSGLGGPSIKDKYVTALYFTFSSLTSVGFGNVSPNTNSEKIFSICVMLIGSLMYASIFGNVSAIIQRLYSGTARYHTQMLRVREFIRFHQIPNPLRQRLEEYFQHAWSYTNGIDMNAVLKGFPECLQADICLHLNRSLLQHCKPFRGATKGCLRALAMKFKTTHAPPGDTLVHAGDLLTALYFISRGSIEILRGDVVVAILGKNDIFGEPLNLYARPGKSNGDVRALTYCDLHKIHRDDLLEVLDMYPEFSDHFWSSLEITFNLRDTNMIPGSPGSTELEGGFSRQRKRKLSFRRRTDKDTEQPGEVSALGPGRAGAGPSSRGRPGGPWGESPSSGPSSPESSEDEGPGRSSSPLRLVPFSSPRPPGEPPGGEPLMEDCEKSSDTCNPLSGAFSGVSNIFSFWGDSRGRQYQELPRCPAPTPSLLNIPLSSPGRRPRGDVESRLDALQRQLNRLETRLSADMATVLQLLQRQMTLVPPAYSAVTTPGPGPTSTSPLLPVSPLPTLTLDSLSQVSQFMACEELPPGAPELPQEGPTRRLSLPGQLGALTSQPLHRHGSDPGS
row,Structure (SMILES),"hERG current change (%, negative = inhibition) at 10uM"
1,Cc1cc(SCC(=O)[O-])nc2ccccc12,12.3%
2,O=C(Nc1c(C(=O)N2CCOCC2)oc2ccccc12)c1cccc([N+](=O)[O-])c1,-20.2%
3,Cn1c(=O)[nH]c(=O)c2c1nc(N1CCCC1)n2CCO,12%
4,Cc1ccc(/C=C/C(=O)OCC(=O)NC(=O)NCc2ccccc2)cc1,15.7%
5,CN(C)c1nc(N)c([N+](=O)[O-])c(N2CCCCCC2)n1,2.69%
6,CCc1nc2ccccc2n(CC)c1=O,16.3%
7,CC(NC(=O)c1cc2c(=O)n3ccccc3nc2n(CC2CCCO2)c1=N)c1ccccc1 (stereo not drawn),-75.2%
8,COc1cc2c(C#N)c(N3CCCCC3)nc(N)c2c(N)n1,1.39%
9,O=C(CSc1nnnn1-c1cccc2c1CCCC2)NC1CCCC1,11.5%
10,C=CCn1c(SCc2c(C)noc2C)nc2sc3c(c2c1=O)CCC(C)C3 (stereo not drawn),9.79%
11,COc1ccc(NC(=O)c2c(-c3c(Cl)cccc3Cl)noc2C)c(OC)c1,3.18%
12,O=C(Nc1ncc(Cc2cc(Cl)ccc2Cl)s1)c1ccc([N+](=O)[O-])cc1,7.87%
13,OCc1cn(-c2ccc(Cl)cc2)nn1,24.2%
14,O=C(Nc1cccc(Cl)c1)c1ccccc1NC(=O)C1CCCCC1C(=O)O (stereo not drawn),16.4%
15,Cc1c(Nc2cc(=O)oc3ccccc23)c(=O)n(-c2ccccc2)n1C,-8.22%
16,CCCCn1c(N)c(N(CCOC)C(=O)CSc2nnc(-c3ccc(C(C)(C)C)cc3)n2N)c(=O)[nH]c1=O,2.07%
17,CCCn1c(SCC(=O)Nc2nonc2C)nnc1-c1ccoc1C,-8.43%
18,O=C(CNC(=S)NC(=O)c1ccccc1Br)c1ccccc1,8.94%
19,CCCCCCn1cc(C(=O)O)c(=O)c2cc(F)c(N3CCCCC3)cc21,5.7%
20,OCC1(Cc2cccc(F)c2)CCN(Cc2ccc3cccc(F)c3n2)CC1,-64.7%
21,O=C(NCCc1ccccn1)c1ccc(OC2CCN(CCc3ccccc3)CC2)cc1,-41.9%
22,NS(=O)(=O)c1ccc(NCc2cc(Cl)ccc2OCc2ccccc2F)cc1,-2.13%

row,Structure (SMILES),"hERG current change (%, negative = inhibition) at 10uM"
1,O=C1CC(c2ccncc2)c2cc3c(cc2N1)OCO3 (stereo not drawn),14.3%
2,CCN(CC)S(=O)(=O)c1ccc(C(=O)NCC2(N3CCOCC3)CCCCC2)cc1,-67.3%
3,Oc1ccc(CCC2CCCCN2Cc2nc(C3CC3)no2)cc1 (stereo not drawn),-12.7%
4,COc1ccccc1N1C(=S)NC2CS(=O)(=O)CC21 (stereo not drawn),24.4%
5,COc1ccc(CN(CC(=O)NCC2CCCO2)C(=O)CNS(=O)(=O)c2ccccc2)cc1 (stereo not drawn),6.07%
6,O=C(NCC(c1ccco1)N1CCCC1)c1cccc(S(=O)(=O)Nc2ccc(F)cc2)c1 (stereo not drawn),-36.5%
7,Cc1c(-n2c(SCC(N)=O)nc3ccccc3c2=O)c(=O)n(-c2ccccc2)n1C,36.4%
8,Cc1nnc(SCC(=O)Nc2cccc(S(N)(=O)=O)c2)n1-c1ccccc1,-0.312%
9,N#CC1(NC(=O)CSc2nc3ncc(Cl)cc3[nH]2)CCCCC1,9.79%
10,O=C(c1ccc2c(c1)OCO2)N1CCN(c2ccc(Cl)cc2)CC1,-33.3%
11,C=CCN=C1SC(C)(C)C(=O)N1S(=O)(=O)c1ccc(C)cc1,-5.05%
12,O=C(O)c1cc(-c2ccc(/C=N/N3C(=O)C4C5C=CC(CC5)C4C3=O)o2)ccc1Cl (stereo not drawn),21.9%
13,O=C(/C=C/c1ccc(Cl)cc1)N1CCN(c2c(Cl)cccc2[N+](=O)[O-])CC1,-58%
14,O=C(NCCN1CCc2ccccc2C1)Nc1ccc([N+](=O)[O-])cc1,-70.1%
15,COc1cccc(NC(=O)c2ccccc2-c2ccccc2)c1,-5.19%
16,COc1ccc(N2C(=O)c3ccccc3NC2c2ccc(OC)c(CN3CCOCC3)c2)cc1 (stereo not drawn),-7.62%
17,CC(C)OCCCNC(=O)CN1C(=O)c2cccc3cccc1c23,12.4%
18,COC(=O)c1ccccc1NC(=O)C1CCN(C(=O)Cc2ccccc2)CC1,-34%
19,CC(C)(C)NC(=O)Cn1c(SCC(=O)NC2CCCC2)nc2ccccc21,7.18%
20,COc1ccc(Cl)cc1NC(=O)NN1CCN(C)CC1,-41.8%
21,CC1=C/C(=N\NC(=S)NCCc2ccccc2)CC(C)(C)C1,-4.83%
22,CCCn1c(=O)c2ccccc2n2c(Sc3nnnn3-c3ccccc3)nnc12,-23.5%

row,Structure (SMILES),"hERG current change (%, negative = inhibition) at 10uM"
1,COc1ccc(NC(=O)c2ccccn2)cc1OC,3.32%
2,COc1ccc(OC)c(S(=O)(=O)N2CCC(C(=O)NC3CC3)CC2)c1,13%
3,O=C(Nc1cc2c3c(c1)CC(=O)N3CCC2)c1ccccc1C(F)(F)F,-2.1%
4,COc1cc(OC)cc(C(=O)Nc2ccc(-n3cnnn3)c(C)c2)c1,-8.74%
5,O=[N+]([O-])c1cccc(CN2CC=C(c3ccc(F)cc3)CC2)c1,-39.2%
6,O=[N+]([O-])c1ccc2nc(-c3ccc(Cl)cc3)[nH]c2c1,8.39%
7,Cc1oc(-c2cc(F)ccc2F)nc1CN(C)Cc1ccc2nccnc2c1,-21.8%
8,CC(=O)Nc1ccccc1C(=O)OCc1ccc(C(=O)c2ccccc2)cc1,5.33%
9,Brc1ccccc1-c1nnc(CSc2nnc3sc4ccccc4n23)o1,-28.9%
10,Cc1nonc1NC(=O)CSc1nnc(-c2ccoc2C)n1C,4.89%
11,COc1cccc(NC(=O)CN(C)C(=O)c2ccccc2OCC(=O)Nc2cccc(C(F)(F)F)c2)c1,-1.61%
12,COC(=O)c1ccc(C2CC(=O)NC3=C2C(=O)CCC3)cc1 (stereo not drawn),5.97%
13,O=C(CCn1c(=S)[nH]c2ccccc2c1=O)NCCCN1CCCC1=O,-22.9%
14,COc1ccccc1N1CCN(C2CCCN(C(=O)c3snnc3C)C2)CC1 (stereo not drawn),-1.76%
15,CN1CCC(=O)N([C@H](CSc2ccccc2)Cc2ccccc2)CC1,-45.8%
16,C/C=C1\COC(C(=O)NCCN2CCCC2)(C(F)(F)F)C=C1C=C1CCCCC1 (stereo not drawn),-34.5%
17,CCN(CCNC(=O)c1cccc(N2CCCC2=O)c1)c1ccccc1,-21.6%
18,COC(=O)C1=CO[C@@H](C)[C@H]2CN3CC[C@]4(C(=O)Nc5ccccc54)[C@@H]3C[C@H]12,15.5%
19,COc1ccccc1C(=O)Nc1ccncc1,2.06%
20,Cc1cccc(-c2nc3cc([N+](=O)[O-])ccc3o2)c1,11.9%
21,CN(C)S(=O)(=O)c1ccc(NC(=O)COC(=O)Cn2[nH]c(=O)c3ccccc3c2=O)cc1,18%
22,CC1CCC(NC(=O)c2cc(S(=O)(=O)N3CCCCC3)ccc2N2CCOCC2)CC1 (stereo not drawn),-36.9%

row,Structure (SMILES),"hERG current change (%, negative = inhibition) at 10uM"
1,O=C1NC(=Nc2ccc(O)cc2)S/C1=C\C=C\c1ccco1,6.5%
2,CC(C)NCC(O)Cn1c2c(c3ccccc31)CCc1c-2cnn1-c1ccccc1 (stereo not drawn),-9.13%
3,O=C(c1ccco1)N(c1ccccn1)c1ccccn1,0.647%
4,COc1cc(CN2CCC(n3nccc3NC(=O)CCCc3ccccc3)CC2)ccc1F,-66.5%
5,O=C1CC(c2cccc(Oc3ccccc3)c2)NC(=O)N1 (stereo not drawn),5.15%
6,CCOc1cc(C2NC(=O)NC(C)=C2C(C)=O)cc(Cl)c1OCC(=O)O (stereo not drawn),5.35%
7,Cc1nn(S(=O)(=O)c2ccc(F)cc2)c(C)c1S(=O)(=O)N1CCOCC1,22.6%
8,CC1CN(S(=O)(=O)c2cccc(C(=O)Nc3ccccc3N3CCCCC3)c2)CC(C)O1 (stereo not drawn),5.06%
9,Cc1ccc(C)c(OC(=O)CN2C(=O)c3ccccc3C2=O)c1,16%
10,Fc1ccc(-c2csc(N3CCC(c4ccccc4)C3)n2)cc1 (stereo not drawn),9.17%
11,N#CN(Cc1ccccc1)Cc1ccccc1,-29.1%
12,N#CCC(=O)Nc1ccc(C(=O)NCCc2c[nH]c3ccccc23)cc1,16.5%
13,CC(=O)c1ccc(NC(=S)NCc2ccc(Cl)cc2Cl)cc1,11.8%
14,COc1ccc2cc(/C(C)=N/NC(=O)c3cc(-c4cccnc4)nc4ccccc34)ccc2c1,11.8%
15,O=C(CSc1nc2c(c(C(F)(F)F)n1)CCc1ccccc1-2)NCc1ccc(F)cc1,14.2%
16,Cc1ccc2c(c1)sc1nc(=O)n(-c3cccc(Cl)c3)c(=O)n12,3.86%
17,COCc1c(C(=O)N/N=C(/C)c2ccccc2)nnn1-c1nonc1N,23.8%
18,S=c1[nH]nc(-c2ccco2)n1Cc1ccccc1,7.19%
19,CCCCC(CCC(=O)O)(C(=O)OCC)c1csc(N)n1 (stereo not drawn),15.9%
20,Cc1ccc2nc(NCCc3ccc(Cl)cc3)c3nncn3c2c1,8.75%
21,CC(C)c1nc2ccc(Br)cn2c1NC1CCCC1,-11.3%
